# Data as given in PubChem BioAssay AID504832 (National Center for Advancing Translational Sciences (NCATS), 2011).
# “And” between values parts separate entries of the source, which are not always exact repeats. Equal values may be shown once. About 18,000 (5.8%) of roughly 310,000 compounds were called active. This list was built around the results that the source calls inconclusive (neither active nor inactive); the mix of calls is not that of the screen. Calls come from the whole dose curve; as a rule, active = well fitted inhibition curve with a large enough effect; inconclusive = small, poorly fitted or top-dose-only effect, or another doubt; inactive = no such curve, though single readings can be large or run the other way. Potencies beside an inconclusive call are fits to weak or partial responses and may not hold up.
# Assay: Primary qHTS for delayed death inhibitors of the malarial parasite plastid, 48 hour incubation
# Details: P. falciparum luciferase growth in erythrocytes; series mostly up to 28.7 µM; activity change, negative = inhibition: at the top concentration
# Outline: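 Here the parasites carry a stable luciferase gene and grow inside erythrocytes in Albumax-based RPMI medium with compound for one erythrocytic cycle. Activity is scored as loss of luminescent signal.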
# % is set by controls: 0 for no effect and ±100 for the full control effect; potency is the fitted concentration of half-maximal effect; tags give direction and shape of the fitted curve.
Structure (SMILES),Potency,"activity change, negative = inhibition"
Cc1c(/C=N/O)sc2ccccc12,"inconclusive: 16.5 µM [inhibitor, single point]",–
c1nc(N2CCC3(CC2)OCCO3)c2[nH]cnc2n1,–,inactive: 20.1%
CCOc1ccc(Nc2cc(C)nc(-n3nc(C)cc3C)n2)cc1,active: 1.85 µM,–
O=C(Cn1nnc(-c2ccccc2NC(=O)c2ccccc2)n1)Nc1ccc2c(c1)OCCO2,"inconclusive: 18.5 µM [inhibitor, single point]",–
CCNS(=O)(=O)c1ccc(CCC(=O)O)cc1,–,inactive: 11.6%
Cc1cc(NC(=O)CSCC(=O)Nc2ccccc2OC(F)F)no1,–,inactive: -21.4%
CCCC1=NN(c2ccc([N+](=O)[O-])cc2)C(=O)/C1=C\N(C)C,–,inactive: 28.3%
c1ccc2c(c1)CCN(C1CCCCC1)C2,"inconclusive: 0.0738 µM [inhibitor, full curve, poor fit]",–
COc1ccc(NC(=S)N(CCc2ccc(OC)c(OC)c2)Cc2ccccn2)cc1,"inconclusive: 16.5 µM [inhibitor, single point]",–
Cc1ccc(C(O)(C(=O)NNc2ccc3ccccc3n2)c2ccc(C)cc2)cc1,"inconclusive: 9.28 µM [inhibitor, partial curve, poor fit] and inconclusive: 18.5 µM [inhibitor, single point]",–
C=CCn1c(C23CC4CC(CC(C4)C2)C3)n[nH]c1=S,"inconclusive: 9.28 µM [inhibitor, partial curve, poor fit]",–
O=C(N/N=C/c1ccc([N+](=O)[O-])cc1)c1cc(C2CC2)nc2ccccc12,"inconclusive: 10.4 µM [inhibitor, single point]",–
CCN(CC)CCOC(=O)c1ccc(NC(=O)CCCN2C(=O)S/C(=C/c3ccc(OC)cc3)C2=S)cc1,active: 2.62 µM,–
N#Cc1ccc(Nc2nc(-c3ccc(O)cc3O)cs2)cc1C(F)(F)F,"inconclusive: 14.7 µM [inhibitor, single point]",–
OCC1(CCOc2ccccc2)CCN(Cc2cn[nH]c2-c2ccc(F)cc2)CC1,"inconclusive: 11.7 µM [inhibitor, single point]",–
Cc1cc(C)n(C(=O)CNC(=O)c2ccc(Cl)cc2Cl)n1,–,inactive: 24.9%
O=C(Nc1ccc2ccccc2n1)c1ccccc1,–,inactive: -3.31%
CSc1ncc(CN2CCCC(C(=O)c3cccc(Cl)c3)C2)cn1 (configuration not stated),–,inactive: -1.98%
NC(=O)/C(=C\c1cccnc1)NC(=O)c1ccccc1,–,inactive: 39.6%
CCN1C(=O)/C(=C/c2ccc(C)s2)NC1=S,–,inactive: 8.29%
C=CCC1(CC=C)CCCN1C(=O)CC1C(=O)NCCN1Cc1cc(OC)cc(OC)c1 (configuration not stated),active: 14.7 µM,–
CCC(=O)Nc1cc(Cl)ccc1C(=O)O,"inconclusive: 14.7 µM [inhibitor, single point]",–
O=C(c1cccc(Cl)c1)N1CCC(N2CCC(C(=O)N3CCOCC3)CC2)CC1,–,inactive: 2.88%
CN(C(=O)c1ccc(NC(=O)Cc2cccc(NC(=O)C3CCN(C(=O)C4CCCC4)CC3)c2)cc1)C1CCCC1,"inconclusive: 18.5 µM [inhibitor, partial curve, poor fit]",–

Structure (SMILES),Potency,"activity change, negative = inhibition"
COC(=O)c1cc2c(C(F)(F)F)nn(C)c2s1,–,inactive: -5.62%
Cc1ccc(Cc2cnc(NC(=O)/C(C#N)=C/c3ccc(-c4ccccc4[N+](=O)[O-])o3)s2)cc1,"inconclusive: 4.15 µM [inhibitor, single point]",–
O=C(NCCO)c1ccc(-c2nnc(Nc3ccc(O)cc3)c3ccccc23)cc1,"inconclusive: 11.7 µM [inhibitor, partial curve]",–
Cc1cccc(NC(=O)c2sc3nc(-c4ccccc4)cn3c2C)n1,"inconclusive: 18.5 µM [inhibitor, single point]",–
Cc1nn(Cc2ccccc2Cl)c2sc(C(=O)Nc3ccccc3N3CCOCC3)cc12,"inconclusive: 18.5 µM [inhibitor, single point]",–
Nn1cnc2c(c1=O)C1(CCCCC1)Cc1ccccc1-2,–,inactive: 3.51%
C=C(C)CNC(=S)NNC(=O)c1ccncc1,–,inactive: 5.68%
CC1CCCCN1c1ccc(N)cc1C(N)=O (configuration not stated),"inconclusive: 0.522 µM [inhibitor, full curve]",–
C[N+]1(CC2COC(c3ccccc3)(C3CCCCC3)O2)CCCCC1 (configuration not stated),active: 1.07 µM,–
O=C(c1ccccc1)n1c(=O)cc[nH]c1=O,"inconclusive: 18.5 µM [inhibitor, single point]",–
COc1ccc(NS(=O)(=O)c2cccc(C(=O)N3CCCC3)c2)cc1,–,inactive: 2.44%
CCC(CC)c1nnc(NC(=O)c2cc([N+](=O)[O-])ccc2N2CCCCC2)s1,"inconclusive: 18.5 µM [inhibitor, single point]",–
CN1CCN(c2ccc(NC(=S)NC(=O)c3cccc4c(Cl)cccc34)cc2)CC1,"inconclusive: 18.5 µM [inhibitor, single point]",–
CN(C)S(=O)(=O)c1ccc(C(=O)NCc2nnc(SCC(=O)c3ccccc3)o2)cc1,"inconclusive: 20.8 µM [inhibitor, single point]",–
CCOC(=O)CSc1nnc(-c2ccc(S(=O)(=O)N3CCOCC3)cc2)n1-c1ccccc1,active: 7.38 µM,–
O=S(=O)(NCC(c1cccnc1)N1CCN(c2ccccc2)CC1)c1cc(F)ccc1F (configuration not stated),active: 10.4 µM,–
CC(C)(C)C(=O)c1cn(Cc2ccccc2)c2ccccc12,"inconclusive: 11.7 µM [inhibitor, single point]",–
Cc1noc(NS(=O)(=O)c2ccc(N/C=C/C(=O)c3ccc(F)cc3)cc2)c1C,–,inactive: 91.4%
Cc1cc(C)nc(N2CCN(C(=O)c3ccc(S(=O)(=O)N4CCCCCC4)cc3)CC2)n1,–,inactive: -4.17%
O=C(C1CC1)N1CCc2cc(Br)cc(S(=O)(=O)N3CCOCC3)c21,active: 5.22 µM,–
OC(CNCC1CCCCC1)COc1ccccc1 (configuration not stated),–,inactive: 0%
O=C(CN1CCCCC1)Nc1ccccc1Oc1ccccc1,"inconclusive: 1.47 µM [inhibitor, partial curve]",–
CC1C(=O)CCN(C(C)(C)C)C1C (configuration not stated),"inconclusive: 0.0029 µM [inhibitor, full curve, poor fit]",–
OCCNc1nc(SCc2ccccc2)nc2sc3c(c12)CCC3,"inconclusive: 11.7 µM [inhibitor, partial curve]",–

Structure (SMILES),Potency,"activity change, negative = inhibition"
CC(C)(C)c1ccc(S(=O)(=O)N2CCN(C(=O)C3CCC3)CC2)cc1,"inconclusive: 11.7 µM [inhibitor, partial curve, poor fit]",–
COc1ccc(C2CC(c3ccccc3)=NN2c2ccc(S(N)(=O)=O)cc2)cc1OC (configuration not stated),"inconclusive: 13.1 µM [inhibitor, partial curve]",–
O=C(CNc1cccc(S(=O)(=O)N2CCCCCC2)c1)Nc1cccc([N+](=O)[O-])c1,"inconclusive: 10.4 µM [inhibitor, single point]",–
CCOC(=O)c1ccccc1-c1cn2cc(Cl)ccc2n1,"inconclusive: 0.0026 µM [inhibitor, full curve, poor fit]",–
Cn1cnnc1SCC(=O)Nc1ccc(S(N)(=O)=O)cc1,–,inactive: -0.0204%
O=C1NCN(c2ccccc2)C12CCN(CCCOc1ccc(F)cc1)CC2,active: 16.9 µM,–
O=C(c1ccccc1)c1ccc2nc(-c3ccc(NC(=O)c4ccccc4Br)cc3)[nH]c2c1,"inconclusive: 0.0329 µM [inhibitor, full curve]",–
Cc1cccc(C(=O)N[C@H](C(=O)Nc2nc3ccc(S(C)(=O)=O)cc3s2)C(C)C)c1,"inconclusive: 3.7 µM [inhibitor, partial curve]",–
COc1ccc(-c2[nH]ncc2-c2csc(C)n2)c(O)c1,–,inactive: -6.21%
C/C=C(\C)C(=O)N1CC2(CC(c3cccc(NC(=O)CCCCC)c3)=NO2)C[C@@H]1C(N)=O (some centres not stated),"inconclusive: 9.28 µM [inhibitor, single point]",–
COc1ccc(C(=O)NCc2cccs2)cc1S(=O)(=O)N1CCOCC1,"inconclusive: 14.7 µM [inhibitor, partial curve, poor fit]",–
COc1ccc(N2CC(NC(=O)c3ccc4ccccc4c3)CC2=O)cc1OC (configuration not stated),–,inactive: -6.42%
COc1ccc(C2=NN(CCC(=O)NC3CCCCCC3)C(=O)CC2)cc1,"inconclusive: 10.4 µM [inhibitor, partial curve, poor fit]",–
Cc1cccc(-c2nc3c(c(=O)c4ccccc4n3C)c(=O)n2-c2ccccc2)c1,active: 1.65 µM,–
CCN1CCN(CC(=O)n2c3c(c4ccccc42)CC(C)CC3)CC1 (configuration not stated),"inconclusive: 13.1 µM [inhibitor, single point]",–
Cc1ccc(-c2nnc(CSc3nnc(COc4ccccc4)n3-c3ccc(C)cc3)o2)cc1,"inconclusive: 11.7 µM [inhibitor, partial curve]",–
[O-][n+]1onc2c3ccnnc3ccc21,"inconclusive: 5.22 µM [inhibitor, partial curve, poor fit]",–
CC(NC(=O)CNC(=O)C1O[C@@H]2OC(C)(C)O[C@@H]2[C@H]2OC(C)(C)O[C@@H]12)C(=O)O (some centres not stated),–,inactive: 12.2%
COc1cccc(/C=N/NC(=O)C(=O)Nc2ccccc2OC(F)(F)C(F)F)c1O,"inconclusive: 18.5 µM [inhibitor, single point]",–
O=C(O)CN1CCN(Cc2ccccc2F)C1=O,–,inactive: 30.2%
N#C/C(=C/c1ccco1)C(N)=S,"inconclusive: 0.0738 µM [inhibitor, partial curve, poor fit]",–
COc1ccc(CNC(=O)c2ccc3c(c2)NC(=O)C(C)S3)cc1 (configuration not stated),–,inactive: 4.42%
CCN1CCCc2cc(CN(CCN3CCOCC3)C(=S)Nc3cccc(Cl)c3)ccc21,"inconclusive: 11.7 µM [inhibitor, partial curve]",–
CCC(=O)Nc1nonc1-c1nc2ccccc2n1Cc1ccccc1,"inconclusive: 2.94 µM [inhibitor, single point]",–
